Reference: PMC4336329 (PLoS ONE, 2015)
Hit rate of the full screen: of about 310,000 compounds, about 14,000 (4.5%) showed an effect of 50% or more. The effect is printed as a negative number. The list shows a part of the results.

These compounds were tested against human ether-à-go-go-related gene (hERG) potassium channel (human, UniProt Q12809) (assay: primary screen, population patch clamp on CHO cells stably expressing hERG).
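Further: peak tail current of the secondary pulse compared with the same well before compound.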

Chain of human ether-à-go-go-related gene (hERG) potassium channel (Q12809 whole entry, looked up): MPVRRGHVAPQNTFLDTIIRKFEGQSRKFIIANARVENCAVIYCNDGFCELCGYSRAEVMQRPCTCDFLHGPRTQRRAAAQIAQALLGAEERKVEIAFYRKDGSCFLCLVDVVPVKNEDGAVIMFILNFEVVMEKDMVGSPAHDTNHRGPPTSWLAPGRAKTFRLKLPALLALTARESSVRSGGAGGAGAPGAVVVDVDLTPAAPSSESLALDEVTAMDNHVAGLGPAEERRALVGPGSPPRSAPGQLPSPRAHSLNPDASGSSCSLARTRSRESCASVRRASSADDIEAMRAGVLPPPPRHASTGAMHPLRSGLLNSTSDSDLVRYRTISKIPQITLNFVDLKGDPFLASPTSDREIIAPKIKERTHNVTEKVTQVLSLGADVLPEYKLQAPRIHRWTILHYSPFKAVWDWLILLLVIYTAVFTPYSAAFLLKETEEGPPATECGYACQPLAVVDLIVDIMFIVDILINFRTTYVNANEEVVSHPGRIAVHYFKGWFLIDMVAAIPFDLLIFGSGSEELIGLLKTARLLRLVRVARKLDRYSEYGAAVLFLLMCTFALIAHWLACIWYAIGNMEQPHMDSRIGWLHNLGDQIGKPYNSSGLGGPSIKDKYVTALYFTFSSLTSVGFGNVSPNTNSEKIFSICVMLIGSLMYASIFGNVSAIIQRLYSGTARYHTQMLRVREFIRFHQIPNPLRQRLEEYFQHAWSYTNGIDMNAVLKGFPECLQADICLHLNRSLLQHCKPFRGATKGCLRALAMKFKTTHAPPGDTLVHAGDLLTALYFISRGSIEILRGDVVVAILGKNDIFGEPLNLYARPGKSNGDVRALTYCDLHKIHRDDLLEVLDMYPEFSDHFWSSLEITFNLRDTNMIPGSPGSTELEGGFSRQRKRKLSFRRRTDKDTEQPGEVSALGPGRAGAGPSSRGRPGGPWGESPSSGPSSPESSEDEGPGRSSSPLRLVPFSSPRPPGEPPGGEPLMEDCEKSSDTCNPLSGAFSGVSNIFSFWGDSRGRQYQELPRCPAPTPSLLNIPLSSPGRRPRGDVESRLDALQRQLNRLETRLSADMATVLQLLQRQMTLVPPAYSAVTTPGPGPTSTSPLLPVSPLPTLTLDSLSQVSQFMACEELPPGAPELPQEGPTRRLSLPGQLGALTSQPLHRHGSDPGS

| SMILES | hERG current change (%, negative = inhibition) at 10uM [%] |
| --- | --- |
| CC(=O)c1cc2c(cc1NC(=O)C1CCC1)OCO2 | 17.6 |
| COc1ccc(Nc2nc(NCc3ccco3)nc(N3CCOCC3)n2)cc1 | 16.1 |
| CCc1cc2c(NCC(=O)O)ncnc2s1 | 7.76 |
| CCCNc1c(NS(=O)(=O)c2ccc(NC(=O)CC)cc2)c(=O)oc2ccccc12 | -38.2 |
| CCCCOc1ccc(/C=C/C(=O)Nc2ccc([N+](=O)[O-])cc2C)cc1 | 2.18 |
| CCn1c(=O)cc(SCC(=O)Nc2ccc3c(c2)OCO3)c2ccccc21 | -17.5 |
| COc1ccc(CNc2nc(-c3ccccc3)nn2C(=O)c2ccc([N+](=O)[O-])cc2)cc1 | 2.93 |
| O=C(NC1CCCCC1)c1ccc(Cn2cc(Cl)cn2)cc1 | -21.2 |
| Cc1cc(C)n(-c2ccc(C(=O)N3CC(C)OC(C)C3)cc2)n1 (stereo not drawn) | 17.5 |
| O=C(O)c1ccc(Nc2ccc3nonc3c2[N+](=O)[O-])cc1 | 16.7 |
| CCN(CC(=O)Nc1c(F)cccc1F)C(=O)CCN1C(=O)C2CCCCC2C1=O (stereo not drawn) | 16.7 |
| Cc1nc(-c2ccc(S(=O)(=O)Nc3cc(S(=O)(=O)N(C)C)ccc3C)s2)cs1 | -3.19 |
| CC(=O)NC(CC(C)C)C(=O)NC(=O)NCc1ccccc1 (stereo not drawn) | -1.58 |
| COCCNC(=O)CN1N=C(c2ccc(C)cc2)CCC1=O | -47.9 |
| O=C(NC1CCCCC1)N1CCN(c2nc(-c3ccccc3)cs2)CC1 | 9.02 |
| CCN1CCN(C(=S)Nc2ccc(C(C)=O)cc2)CC1 | 30.5 |
| O=c1cc(NCCc2ccccc2)c2ccccc2o1 | 34.2 |
| O=C(O)c1cn(-c2ccccc2)nc1-c1ccc(F)cc1 | 23.6 |
| O=C(NCc1ccc2c(c1)OCO2)C1CCN(c2ncccn2)CC1 | 0.299 |
| CCOC(=O)CN1C(=O)N(CC)C(C)=C(C(=O)OC)[C@@H]1c1ccccc1 | 4.35 |
| Cc1ccsc1C(=O)N(CC(C)C)c1c(N)n(Cc2ccccc2)c(=O)[nH]c1=O | 9.63 |

| SMILES | hERG current change (%, negative = inhibition) at 10uM [%] |
| --- | --- |
| CCc1ccccc1NC(=O)CN(C)C(=O)c1cc(C2CC2)nc2c1cnn2C(C)C | 11.5 |
| COc1ccc(N2CCN(C(=S)NCc3ccc(C)cc3)CC2)cc1 | -18.5 |
| COc1ccc(C)cc1NC(=O)CN(C)C1CCCCC1 | -15 |
| NC(=O)C1CCN(C(=S)NC2CC3C=CC2C3)CC1 (stereo not drawn) | 16.2 |
| C/C(=N\N(C)C)c1ccc(OCCOc2ccc([N+](=O)[O-])cc2)cc1 | 17.7 |
| CSc1nnc2c3cc(F)ccc3n(C)c2n1 | 14.5 |
| CC(=O)Oc1ccc2c(=O)c(-c3nc4ccccc4s3)coc2c1 | 21.3 |
| O=CN1CCN(C(=O)Cc2ccc([N+](=O)[O-])cc2)CC1 | -25.6 |
| CCOc1ccccc1OCCCC(=O)N(C)CC(=O)Nc1cc(C)ccc1C | 3.63 |
| COc1cccc(C2CC(c3cccs3)=NN2C(=O)CSC2=NCCS2)c1OC (stereo not drawn) | -14.3 |
| O=C(c1ccc(F)cc1)N1CCN(S(=O)(=O)c2ccc(Br)cc2)CC1 | -5.63 |
| CCCCSc1nn[nH]n1 | 11.7 |
| C[C@H]1C(=O)N(C)CCN1C(=O)c1ccccc1OC1CCN(S(C)(=O)=O)CC1 | 41.5 |
| O=C(COc1ccccc1F)NC1CC1 | 0.681 |
| C=C[C@@H]1c2ccccc2N(S(=O)(=O)c2ccc(C)cc2)[C@H](c2ccc(OC(C)=O)cc2)C1(C#N)C#N | 32.9 |
| CC1(NC(=S)Nc2ccc(NC(=S)NC3(C)CCS(=O)(=O)C3)cc2)CCS(=O)(=O)C1 (stereo not drawn) | 19.4 |
| Cc1ccc(OC(=O)c2cccc(S(=O)(=O)N(C)C)c2)c(-n2nc3ccccc3n2)c1 | -4.3 |
| COc1ccc(NC(=O)c2ccc3c(=O)n4c(nc3c2)CCCCC4)cc1 | -40 |
| Cc1ccc(SCC(=O)O/N=C(\N)c2cccnc2)cc1 | -6.55 |
| Cc1ccc(C2C=C(c3ccccc3)Nc3ncnn32)cc1 (stereo not drawn) | -64.7 |
| COc1ccc(NC(=O)CC2C(=O)N(CCc3ccccc3)C(=S)N2Cc2cccnc2)cc1 (stereo not drawn) | -23.8 |

| SMILES | hERG current change (%, negative = inhibition) at 10uM [%] |
| --- | --- |
| CN=C(Nc1ccc(C(=O)OC)s1)c1ccccc1 | -4 |
| CCn1c(N2CCN(S(=O)(=O)c3ccc(F)cc3)CC2)nc2ccccc21 | -36.2 |
| CCOC(=O)N1CCN(Cc2cc(=O)oc3ccc4ccccc4c23)CC1 | 3.35 |
| O=C(c1nc2ncccn2n1)N1CCc2ccccc2C1 | -3.79 |
| Cc1c(Br)ccc(NC(=O)c2ccccc2[N+](=O)[O-])c1C | 14.1 |
| COCc1nnc(NS(=O)(=O)c2ccc(C)cc2)s1 | 9.7 |
| O=C1CCN(Cc2nnnn2CC2CCCO2)c2ccccc2N1 (stereo not drawn) | 2.18 |
| Cc1ccc(S(=O)(=O)N2CCN(C(=O)CSc3nc4ccccc4c(=O)[nH]3)CC2)c(C)c1 | 11.6 |
| CCCn1nc2cc(C(=O)NCc3ccc(C)cc3)ccc2c1OC | 1.15 |
| COc1cc(/C=C(\C#N)C(=O)Nc2ccccn2)ccc1O | 13.6 |
| O=C1/C(=C/c2ccccc2Cl)SC(=S)N1CCC(=O)N1CCCCC1CCO (stereo not drawn) | -8.3 |
| COc1cc(C2NC(=O)NC(c3ccccc3)=C2C(C)=O)c(Br)c(Br)c1O (stereo not drawn) | 1.43 |
| Cc1cccc(NC(=O)C2CCCN2C(=O)Oc2ccccc2)c1C (stereo not drawn) | -4.43 |
| CC(=O)c1cc(C)ccc1OC(=O)CCN1C(=O)C2C3c4ccccc4C(c4ccccc43)C2C1=O (stereo not drawn) | -0.13 |
| C/C=C(/C)C(=O)Nc1cccc(C2=NOC3(C2)C[C@@H](C(N)=O)N(C(=O)CC)C3)c1 (stereo partly drawn) | 3.34 |
| CC(C)c1cc(C(=O)N/N=C/c2ccoc2)c(O)c(C(C)C)c1 | 2.22 |
| S=c1[nH]c(-c2ccccc2)cn1/N=C/c1cccs1 | 10.4 |
| COC(=O)c1cc(OC)c(OC)cc1NC(=O)CSc1nnnn1Cc1ccccc1 | -29.9 |
| Cc1ccc(C)c(NC(=O)c2ccc3c(c2)N(Cc2ccc(F)cc2)C(=O)CS3=O)c1 (stereo not drawn) | -6.89 |
| COc1ccc(S(=O)(=O)/N=C2\C=C(Nc3ccc(O)cc3)C(=O)c3ccccc32)cc1 | 11.9 |
| CCc1ccc2nc(NC(=O)C3CSC4(C)CCC(=O)N34)sc2c1 (stereo not drawn) | -18.3 |

| SMILES | hERG current change (%, negative = inhibition) at 10uM [%] |
| --- | --- |
| O=C(c1ccco1)N1CCCC(c2nc(-c3ccc(S(=O)(=O)NCc4ccccc4)cc3)no2)C1 (stereo not drawn) | -19.5 |
| CCOc1ccc(C(=O)NCC(=O)OCc2c(F)cccc2Cl)cc1OCC | 0.837 |
| COc1ccc(-c2cc(C(=O)N3CCN(c4ncccn4)CC3)c3ccccc3n2)c(OC)c1 | -25.8 |
| CCCCn1c(N)c(N(CCOC)C(=O)COC(=O)CSc2cc(C)c3ccccc3n2)c(=O)[nH]c1=O | -1.11 |
| Cc1ccc(C)c(CN2CCNC2=O)c1 | 8.76 |
| COc1cc(/C=C2\N=C(c3ccccc3)OC2=O)ccc1OC(C)=O | 17.2 |
| CC(C)CN(C(=O)C1CSC2(C)CCC(=O)N12)c1c(N)n(Cc2ccccc2)c(=O)[nH]c1=O (stereo not drawn) | 8.5 |
| CCOc1cc(CNCc2cccnc2)ccc1OCC(=O)NC(C)(C)C.Cl | -7.29 |
| Cn1c(CCNC(=O)c2ccccc2F)nnc1SCc1nc2ccccc2c(=O)[nH]1 | 3.65 |
| O=C(CCC(=O)Nc1nnc(C2CCCCC2)s1)NCc1ccc(F)cc1 | 19.7 |
| CC(C)n1c(C(=O)OCC(=O)NCc2ccc3c(c2)OCO3)cc2occc21 | -0.55 |
| COc1ccc(CCC(=O)N2CCN(c3ccc([N+](=O)[O-])cc3)CC2)cc1OC | -81.5 |
| COc1ccc(OC)c(S(=O)(=O)N2CCC(C(=O)NCc3ccccn3)CC2)c1 | 16.6 |
| Cn1c(Cn2c(=O)sc3ccccc32)nnc1SCC(=O)NCc1ccc(F)cc1 | 7.17 |
| COc1ccc(-c2cc(C(=O)Nc3c(Cl)cc(Cl)cc3Cl)c3ccccc3n2)cc1OC | 6.81 |
| CNC(=O)Nc1cccc(-c2cc(-c3c(Cl)cccc3Cl)no2)c1 | 2.41 |
| Cc1ccc(S(=O)(=O)N(C)CC(=O)Nc2cccc3c2CCCC3)cc1 | -2.82 |
| CCOC(=O)c1c(C)[nH]c(C)c1C(=O)COC(=O)c1ccc(Cl)c(S(N)(=O)=O)c1 | 3.98 |
| CCc1ccc(NC(=O)CN(CC(=O)Nc2ccc(CC)cc2)CC(C)O)cc1 (stereo not drawn) | -28.5 |
| O=c1cc(-c2ccccc2)[nH][nH]1 | -5.02 |
| CO[C@H]1/C=C/O[C@@]2(C)Oc3c(C)c(O)c4c(O)c(c(C=NN5CCN(C)CC5)c(O)c4c3C2=O)NC(=O)/C(C)=C\C=C\[C@H](C)[C@H](O)[C@@H](C)[C@@H](O)[C@@H](C)[C@H](OC(C)=O)[C@@H]1C | 2.29 |
